# Whole data set: some 33,000 sequences, median “E-score (-0.5 to 0.5)” near -0.017, cut for the highest 2% near 0.3. The list shows a part of the results.
# Target: T1, Sut1 (UniProt P53032)
# T1 sequence: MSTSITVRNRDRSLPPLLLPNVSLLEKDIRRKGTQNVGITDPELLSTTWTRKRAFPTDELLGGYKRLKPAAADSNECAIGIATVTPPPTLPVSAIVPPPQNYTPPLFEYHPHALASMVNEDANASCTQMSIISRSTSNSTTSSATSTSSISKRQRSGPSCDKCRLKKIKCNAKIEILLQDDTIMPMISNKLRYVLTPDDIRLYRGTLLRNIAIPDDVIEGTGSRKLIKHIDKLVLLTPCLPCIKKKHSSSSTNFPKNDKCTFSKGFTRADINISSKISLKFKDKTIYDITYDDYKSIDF
# Test: PBM E-score (8-mer binding enrichment) (E-score (-0.5 to 0.5)); higher = stronger / more preferred TF binding; most listed sequences are background and not binding sites
# Settings: protein concentration: 200 nM; construct: GST-full length
# How it was run: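 E-scores (a modified Wilcoxon-Mann-Whitney statistic) were assigned by the Universal PBM Analysis Suite to every ungapped eight-base word pooled with its reverse complement. The input came from universal all-10-mer Agilent arrays made double-stranded by primer extension and probed with GST-tagged yeast transcription factors at about 100-200 nM. Fluorescent anti-GST detected bound protein, and masliner normalised the scans.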
row,Sequence,PBM E-score
1,GTTAATGA,0.111
2,CACGCAGG,-0.0775
3,AAGACATC,-0.113
4,CGACAGCC,-0.145
5,CCGGCCGA,0.0979
6,CAGCCCCG,0.161
7,CCATAGCC,0.00618
8,TAGCGTCA,-0.116
9,ATCGGCAT,0.0323
10,CACTCTTC,-0.135
11,CAGTTGCA,-0.0927
12,GTAGCAAA,0.138
13,CATGTTAC,0.051
14,ACCCTCAC,-0.305
15,AAACCAGG,-0.139
16,ATAGCTGA,-0.00086
17,GATTTCCA,-0.0172
18,AAGCTAGA,-0.0114
19,CGCACCTC,-0.128
20,GGAAGATA,0.104
21,GCGATGAC,-0.218
22,GAGTGGAC,-0.177
23,CCGTGATA,-0.0504
24,AAAATGTG,-0.014
25,CACCCCAG,-0.216

row,Sequence,PBM E-score
1,AGGTTGGG,-0.218
2,AATCCACA,0.14
3,CCGTCAAC,0.0722
4,AGTATGAC,0.113
5,AATATCCA,0.171
6,TCACCCCA,-0.0213
7,GTCGTGTA,0.0309
8,AACCCACG,-0.0793
9,ATATAGAT,0.272
10,AAGGCACG,0.0592
11,AAGTAAGA,-0.0209
12,GCGCTACA,-0.0141
13,AAATTCCC,-0.245
14,AATGGCGT,-0.147
15,AAATGTCC,0.142
16,GGGGGATA,-0.276
17,CATAAATG,-0.0283
18,AACTTACA,0.096
19,GCTAACGA,0.118
20,ACACCCAT,-0.0858
21,CATCTTTC,0.0273
22,GACAGGAC,-0.00501
23,ACTCATCG,0.0167
24,GGCCAGGA,-0.175
25,CGTGTCCC,-0.21

row,Sequence,PBM E-score
1,AGGTAGTC,-0.125
2,GGCCTAGA,-0.15
3,AGCCAGAC,0.00765
4,ACTCTGAC,-0.103
5,GTAGCCTA,-0.141
6,CGACATTA,0.188
7,CGTAAAAC,-0.0625
8,GCATTGAA,0.0569
9,GTAGCGAC,-0.175
10,GTGAAACA,0.0674
11,CCCCCAGG,-0.402
12,GGTCCATA,-0.0456
13,ATCCTGGA,-0.116
14,ATGATTTC,0.299
15,AAGTGTGG,0.0182
16,CATCGACA,-0.0954
17,ATCACACA,0.146
18,ACCCCGAG,0.382
19,CGGGAACG,-0.0927
20,GGAGCGGA,0.118
21,AGGCCTGC,-0.208
22,AGTCCTCG,0.0172
23,ACACACTC,0.117
24,AACGCCTA,-0.0935
25,CATGAATA,0.0806

row,Sequence,PBM E-score
1,GACGCATA,-0.0138
2,ACCATTGG,-0.0785
3,ACTCCCTC,-0.241
4,ACTGACGG,-0.126
5,ATGCTCGC,-0.228
6,AGCCTGAA,-0.0142
7,CTAACTAA,0.142
8,AACTTGGC,-0.0992
9,CCAGAGCG,-0.147
10,ACGTCTAC,0.00638
11,AAATCCCC,-0.119
12,CAGGCAAA,0.157
13,ATCGGAAC,0.14
14,ACCCCACG,-0.235
15,CCTGGACC,-0.167
16,GCGCTAAC,-0.0641
17,GTGGGCAA,-0.133
18,AAGTCGCC,-0.0949
19,AGACCGCT,-0.141
20,CCACCTAA,-0.119
21,CATAACAA,0.179
22,ACGGGTGG,-0.255
23,CTCAGAAG,-0.217
24,ATGCTAAC,0.0416
25,ACTCCGAC,0.489

row,Sequence,PBM E-score
1,AAAATGTC,0.183
2,CGCGCACA,-0.17
3,AGCTCTGG,-0.268
4,AAAATTGC,0.0649
5,CAACTTGC,-0.173
6,GTGGGAGA,-0.272
7,CGACCGAG,-0.0823
8,ATGGTTCC,0.0908
9,CAATGGTG,-0.274
10,CATCGAGA,-0.0242
11,CCGTCGGC,-0.245
12,GTTTCAGA,-0.195
13,GACGTACA,0.0362
14,AGAGAGTC,-0.161
15,AGCGAGCC,-0.238
16,ACCCAAGA,-0.0358
17,CTGCGGCA,-0.15
18,CGTTACCC,-0.203
19,CCAGTCAC,-0.124
20,AACCGCCA,-0.19
21,ATAGTAAA,0.181
22,TGATCAAA,-0.0045
23,CAACCCGG,-0.157
24,GAAATAGC,0.0751
25,GGTGGTAC,-0.0938

row,Sequence,PBM E-score
1,AACCAACG,-0.0959
2,TATTTCGA,0.211
3,AGACACCG,0.0946
4,TCATCAGA,0.00113
5,ACCCATGC,-0.0891
6,CTCGATCC,-0.00149
7,CTTTAAGC,0.0953
8,ACGGGGCC,-0.135
9,CTCTACCC,-0.225
10,GGGAACAC,-0.0832
11,AAGATCTC,-0.00519
12,AATACTAG,0.0557
13,CGACCAAC,0.0389
14,CCTCCCTA,-0.367
15,CTCAGCTC,-0.178
16,GATGGAGA,0.0416
17,ATGACAGC,-0.00371
18,GAGGAAGC,-0.0806
19,CAGATGTC,0.0581
20,ACTCCCGG,0.174
21,AAGTCACT,0.0541
22,CACACGTC,-0.191
23,AACGGAGC,0.231
24,CCCCGTAC,-0.194
25,GGCTGCCA,-0.149

row,Sequence,PBM E-score
1,AGAGATTC,-0.00815
2,GGCAACAA,-0.127
3,AGATCTGG,-0.255
4,AATTCCGA,0.371
5,CGCGATCC,-0.145
6,GAGATCCA,0.0783
7,GACAATGC,0.0305
8,TAGTTATA,0.318
9,ACACGAAA,0.204
10,ACGGTGCG,-0.0481
11,GTCAATTA,0.214
12,ACCGCCGA,0.0107
13,CTTACAAA,0.171
14,GTCACTGA,-0.1
15,CATCTTCG,-0.0746
16,ACATGCCT,0.00953
17,ATTTCACA,0.113
18,TATTGTCA,0.0862
19,ATTCTGAG,0.0593
20,AAACAAGA,0.0505
21,AGGACTTC,-0.0808
22,GTGCGAAA,0.00061

# Reference: the supplement of paper PMC3334620
